Measurements as given in PubChem BioAssay AID1159614 (National Center for Advancing Translational Sciences (NCATS), 2016).
Screen size: about 45,000 compounds; about 65 (0.1%) were called active. Calls come from the whole dose curve; as a rule, active = well fitted activation curve with a large enough effect; inconclusive = small, poorly fitted or top-dose-only effect; inactive = no such curve, though single readings can be large or run the other way. The list shows a part of the results.

The compounds below were run against Galactocerebrosidase (Homo sapiens) (UniProt P54803) (assay: A Novel Cell-Based Assay to Identify Small Molecules for B -Galactocerebrosidase). Conditions: 145M-Twi-hGALC-G270D cells (Twitcher mouse brain line with human GALC G270D), HMU-beta-Gal fluorescence, 48 h; series mostly up to 57.5 µM; activation: at the top concentration.
In short: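 Brain-derived Twitcher mouse 145M-Twi cells stably expressing human GALC-G270D or wild-type GALC, treated live, then residual GALC activity read by fluorescence of HMU-b-Gal substrate (0.1 mM final) in citrate-phosphate buffer pH 5.2 with sodium taurocholate. Signal increase indicates enhancement.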
Note: 0% is about no effect; nearly all actives have a fitted effect of over 65% in size.

UniProt P54803, sequence (P54803 whole entry, looked up): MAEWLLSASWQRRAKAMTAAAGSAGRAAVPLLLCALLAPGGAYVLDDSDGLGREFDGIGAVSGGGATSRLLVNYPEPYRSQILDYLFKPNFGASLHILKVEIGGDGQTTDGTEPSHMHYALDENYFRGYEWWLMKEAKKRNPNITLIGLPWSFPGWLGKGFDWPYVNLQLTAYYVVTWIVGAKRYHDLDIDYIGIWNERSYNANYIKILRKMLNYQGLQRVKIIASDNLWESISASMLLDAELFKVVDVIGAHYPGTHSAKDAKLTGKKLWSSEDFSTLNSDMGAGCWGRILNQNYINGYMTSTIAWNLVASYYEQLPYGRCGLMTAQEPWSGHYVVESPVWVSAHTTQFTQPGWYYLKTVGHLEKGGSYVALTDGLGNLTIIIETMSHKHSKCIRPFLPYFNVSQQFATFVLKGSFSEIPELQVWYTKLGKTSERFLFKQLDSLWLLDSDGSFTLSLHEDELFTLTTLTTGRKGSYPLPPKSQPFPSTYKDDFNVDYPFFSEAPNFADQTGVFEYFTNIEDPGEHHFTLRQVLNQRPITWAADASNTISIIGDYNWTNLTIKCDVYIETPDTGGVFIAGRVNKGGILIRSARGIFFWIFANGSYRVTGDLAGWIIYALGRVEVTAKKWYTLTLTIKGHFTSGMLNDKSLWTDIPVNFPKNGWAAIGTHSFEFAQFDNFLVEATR

activation, inactive:
COc1ccc(Cn2c(=O)c3ccccc3n3c(-c4ccc(C)cc4)nnc23)cc1 -15.3%
CCOc1ccc(NC(=O)c2ccc3nc(C(C)C)oc3c2)cc1 -5.49%
COc1ccc(Cn2c(C(=O)O)c(CNCc3ccc(C)o3)c3ccc(OC)cc32)cc1 1.35%
Cc1ccc(C)c(NC(=O)Cn2cc(S(=O)(=O)NC(C)C)c(S(=O)(=O)NC(C)C)c2)c1 -16%
CC(C)c1cc2c(cc1S(=O)(=O)O)[C@@]1(C)CCC[C@@](C)(C(=O)O)[C@@H]1CC2 -11.9%
COc1cc(C(=O)Nc2c(C(=O)Nc3ccccc3F)oc3ccccc23)cc(OC)c1OC -10.8%
Cc1ccc(OCc2cc(=O)n3cc(C)sc3n2)c(NC(=O)c2ccco2)c1 5.78%
CCC(=O)N1c2ccc(S(=O)(=O)CCC(=O)N3CCN(c4ccc(F)cc4)CC3)cc2CC1C (stereo unspecified) -8.54%
COc1ccc2c(c1)CC(NC(=O)Nc1ccc(Br)c(C)c1)CO2 (stereo unspecified) -15.9%
CCCn1c(NCc2ccccc2F)nc2ccccc21 -4.9%
O=C(Nc1cccc(NC(=O)c2ccc(Br)cc2)c1)c1ccccc1 -15.9%
CCN(C(=O)c1cccn(Cc2cccc(Cl)c2)c1=O)c1ccccc1 -1.42%
CCOC(=O)N1CCc2c(sc(NCc3cccc(F)c3)c2C(=O)Nc2ccc(OCC)cc2)C1 -24.3%
CCCCCNC(=O)c1ccc2c(=O)n(CCc3ccccc3)c(=O)[nH]c2c1 -10.4%
COc1ccc(C(=O)Nc2nonc2-c2ccc(OC)c(OC)c2)cc1Cl 21.6%
Cc1ccc(-c2nc(Cn3c(SCc4ccc(F)cc4)nc4cccnc43)c(C)o2)cc1 -6.77%
COc1ccc(-c2nnc(SCC(=O)Oc3cc(C)ccc3C)o2)cc1 6.58%
O=C(NCc1cccc(F)c1)c1ccc2nc(CCc3ccccc3)oc2c1 -13%
CCOC(=O)c1cc2c(=O)n3ccccc3nc2n(CC2CCCO2)c1=NC(=O)c1ccc(F)cc1 (stereo unspecified) -11.5%
CC(C)Oc1ccc(CNC(=O)c2ccc3c(c2)N(C)C(=O)C2CCCCN32)cc1 (stereo unspecified) 0.0602%
Cc1ccc(N2CC(NC(=O)C3CCCC3)CC2=O)cc1C (stereo unspecified) -5.38%
CCc1cc(C(=O)NCc2ccc(F)cc2)no1 -14%
CC(=O)c1ccc(S(=O)(=O)N2CCn3cccc3C2c2ccc(F)c(F)c2)cc1 (stereo unspecified) -8.26%
CN(C)C(=O)C(CCN1CCC(O)(c2ccc(Cl)cc2)CC1)(c1ccccc1)c1ccccc1 -7.89%
COc1ccc(CNc2ncnc3c2c(-c2ccccc2)cn3-c2cccc(C)c2)cc1 -10.3%
COc1ccc(C(=O)Nc2cc(NC(=O)c3ccco3)ccc2OC)cc1Cl 7.33%
O=C(CSc1nccn1-c1ccc(F)cc1)Nc1cccc2ccccc12 -12%
CCc1nnc(SCc2nc(-c3cccc(C)c3)oc2C)c2cc3sc(C)cc3n12 -5.89%
Cc1ccc(NC(=O)CSc2nc(C3CCCC3)nc3c2c(=O)n(C)c(=O)n3C)c(C)c1 3.43%
COc1cccc(NC(=O)C2CCN(S(=O)(=O)c3c(C)noc3/C=C/c3cccs3)CC2)c1 -3.37%
O=C(COc1ccccc1Cl)Nc1nc(-c2ccc(F)cc2)ns1 -41.5%
CCN1CCN(c2cc(C)c3cc(NC(=O)/C=C/c4ccc(OCCC(C)C)cc4)ccc3n2)CC1 -19.9%
CCOc1ccc(C(=O)NCCc2csc(-c3cccnc3)n2)cc1 -20.7%
CCN(CC)S(=O)(=O)c1ccc2c(c1)N(CC(=O)NCCCN1CCN(c3cc(C)ccc3C)CC1)C(=O)CO2 -23.6%
Cc1ccc(NC(=O)C2CCCN(S(=O)(=O)c3cccc4nsnc34)C2)c(C)c1 (stereo unspecified) -8.83%
O=C(Cn1c(=O)n(-c2ccc(F)c(Cl)c2)c(=O)c2sc3ccccc3c21)NC1CCCCC1 -9.52%
CN1CCN(C2(CNC(=O)COc3ccc(C(C)(C)C)cc3)CCCCC2)CC1 2.13%
Cc1ccc(Cl)cc1Nc1nn2c(=O)c3ccc(C(=O)NC4CCC(C)CC4)cc3nc2s1 (stereo unspecified) 5.95%
CCn1c(=N)c(C(=O)NC2CCCC2)cc2c(=O)n3cc(C)ccc3nc21 1.94%
Cc1ccc(OCCCCn2nnc3sc4c(c3c2=O)CCC(C)C4)cc1 (stereo unspecified) -4.24%
CCOC(=O)c1c(-c2ccccc2)oc2cc(Br)c(OCc3ccccc3)cc12 15.4%
CCc1ccc(NC(=O)Cn2c(=O)n(CCC(=O)NCCc3ccc(OC)c(OC)c3)c(=O)c3ccccc32)cc1 -3.34%
CCC(C)S(=O)(=O)c1oc(-c2ccc(F)cc2)nc1S(=O)(=O)c1ccc(F)cc1 (stereo unspecified) -23.7%
CCOc1ccc(-n2nc3ccc(NC(=O)COc4ccccc4)cc3n2)cc1 -7.76%
Cc1cc(C)cc(NC(=O)C2CCN(c3nc4ccccc4nc3C(F)(F)F)CC2)c1 -8.51%
CCNC(=O)C1CCCN(c2nn3cc(-c4ccc(C)cc4)nc3s2)C1 (stereo unspecified) -22%
CC(C)c1ccc(CNCCSc2nnnn2-c2ccccc2)cc1 -3.72%
CCCn1c(=N)c(C(=O)NC2CCCCC2)cc2c(=O)n3cc(C)ccc3nc21 1.29%
CCOC(=O)c1cc(-c2ccccc2)n(-c2cccc(C(=O)NC(C)(C)C)c2)c1C -33.5%
CCOC(=O)c1cnc2ccc(OCC)cc2c1NCCc1ccc(OC)c(OC)c1 -22.2%
Cc1ccccc1C(=O)Nc1ccc(C(=O)N2CCCC(O)c3cc(Cl)ccc32)c(C)c1 (stereo unspecified) -5.63%
CC(C)COc1ccc(C(=O)N(Cc2cccc(F)c2)C2CCS(=O)(=O)C2)cc1 (stereo unspecified) -10.5%
CCOc1ccc(S(=O)(=O)NCc2cccn2Cc2cccc(C)c2)cc1 -4.02%
Cc1ccc(NS(=O)(=O)c2c(C)nc3sc(C)c(C)n3c2=O)cc1F -0.485%
CCc1cccc(C)c1NC(=O)C(NS(=O)(=O)c1ccc2c(c1)CCC(=O)N2)c1ccccc1 (stereo unspecified) -14.3%
CC[N+](CC)(CC)CCOc1ccc(/C=C/c2ccccc2)cc1 1.98%
CCN1CCc2c(sc(-n3cccc3)c2C(CCC(C)C)NC(=O)NCCC(=O)OC)C1 (stereo unspecified) -10.8%
CCCn1c2ccccc2c2cnn(CC(=O)NCCCOC(C)C)c(=O)c21 -10.1%
COc1cccc(-c2nc(CS(=O)(=O)CC(=O)Nc3ccc(C)c(Cl)c3)c(C)o2)c1 -46.7%
Cc1cccc(NC(=O)c2cc3c([nH]c2=O)CC(c2ccccc2)CC3=O)c1 (stereo unspecified) -4.35%
COc1ccc(CCNC(=O)Cc2ccc(NC(=O)N3CCSc4ncccc43)cc2)cc1OC -12%
